{"source": "the RNAGym collection of RNA variant scans (doi:10.1073/pnas.2313332121)", "parents": {"B1": {"name": "TPR 5TU (parent)", "chain": "GGAUCUUCUCGAUCUAACAAAAAAGACAAAUCUGCCACAAAGCUUGAGAGCAUCUUCGGAUGCAGAGGCGGCAGCCUUCGGUGGCGCGAUAGCGCCAACGUUCUCAACUAUGACACGCAAAACGCGUGCUCCGUUGAAUGGAGUUUAUCAUG"}}, "note": "Variants at the floor of the assay are shown more often than the library holds them.", "data": [{"variants_of": "B1", "assay": "polymerase ribozyme fitness, log enrichment relative to wild type (log ratio); higher = more active; in vitro selection for triplet polymerase activity", "in_short": "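Mutant libraries of both subunits of a heterodimeric triplet polymerase ribozyme were PCR-built, transcribed, and selected once in triplicate, with frozen incubation at −7 °C and capture of gel-excised extended constructs on streptavidin beads before RT-PCR. Illumina sequencing of input and output libraries was filtered to genotypes with ≥10 input reads and ≥1 read per output. Fitness is the logarithm of genotype enrichment over wild-type enrichment, using inverse-variance-weighted replicate averages. The logarithm is base 2.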", "values": [{"variant": "GGAUCUUCUCGAUCAAACAAAAAAGACACAUCUGCCACAAAGCUUGAGAGCAUCUUCGGAUGCAGAGGCGGCAGCCUUCGGUCGCGCGGUAGCGCCAACGUUAUCAACUAUGACACGCAAAACGCGUGCUCCGUUAAAUGGAGUUUAUCAUG", "polymerase ribozyme fitness (log ratio)": "≤ -4.2"}, {"variant": "GGAUCUUCUCGAUCAAACAAAAAAGACAAGUCUGCCACAAAGCUUGAGAGCAUCUUCUGAUGCCGAGGCGGCAGCCUUCGGUGGCGCGAUACCGCCAACGUUCUCAACUAUGAGACGCAAAAUGCGUGCUCCGUUGAAUGGAGUUUAUCAUA", "polymerase ribozyme fitness (log ratio)": "≤ -4.2"}, {"variant": "GGAUCUUCUCGAUUUAACAAAAAAGACAAACCUGCCACAAAGCUUGAGAGCAUCUUCGGAUGCAGAGGCGGCAGCUUUCGGUGUCGCGAUAGCGCCAACGUUCUCAACUAUGACACGCAAAACGCGUGCUCCGUUGAAUGGGUUUGAUCAUG", "polymerase ribozyme fitness (log ratio)": "≤ -4.2"}, {"variant": "GGAUCUUCUCGAUCAAACAAAAAAGACAACUCUGCCACAAAGCUUGAAAGCAUCUUCGAAUGCAGAGGCGGCAGCCUUCGGUGGCGCGAUUGCGCCAAGGUUCUCUUCUAUGUCACGCAAAACGCGUGCUCCGUUGAAUCGAAUUUAUCAUG", "polymerase ribozyme fitness (log ratio)": "≤ -4.2"}, {"variant": "GGAUCUUCUCGAUCAAACAAAGAAGACAAAUCUACCACAAAGCUUGAGAGCAUCUUCGGAUACAGAGGCGGUAGCCUUCGGUGGCGCGAUAGCGCCAACGUGCUCAACUAUGACACGCAAAACGCGUGCUCCGUUGAAUGGAGUUUAUCAUG", "polymerase ribozyme fitness (log ratio)": "≤ -4.2"}, {"variant": "GGAUCUUCUCGAUUUAACAAAAAAGACAAAUCUGCCACAAAGCUUGAGAGCAUCAUCGGAUGCAGAGGCGGCAGCCUUCGGUGGGGCGAUAGUGCAAACGUACUCAACUAUGACGCGCAAAACGCGUGCUCCGUUGAAUGGAGUUUAUCAUG", "polymerase ribozyme fitness (log ratio)": "≤ -4.2"}, {"variant": "GGAUCUUCUCGAUUUAACAAAAAAGACAAAGCUGCCACAAAGCCUGAGAGCAUCUUCGGAUGCAGAGGAGGCAGCCUUCGGUGGGGCGGUUGCGCCAACGUUCUCAACUAUGACACGCAAAACGCGUGCUCUGUUGAAUGGACUUUAUCAUG", "polymerase ribozyme fitness (log ratio)": "≤ -4.2"}, {"variant": "GGAUCUUCUCGAUUUAACAAAAAAGACAAAUCUGCCACAAAGCUUGAGAGCAUCAUCGGAUGCAGAGGCGGCAGCCUUCGGUGGCGCGAUAGCGCCAACGUUCUCAACUAUGACACGCAAAACGCGUGCUCCGUUGAAUGGAGUUUAUCAUG", "polymerase ribozyme fitness (log ratio)": -1.33}, {"variant": "GGAUCUUCUCGAUCAAUCAAAAAAGACAAAUCUGCCACAAAGCUUGAGAGCAUCUUGGGAUGCAGAGGCGGCAGCCUUCGGUGGCGCUAUCGCGCCAACGUUCUCAACUACGACACGCAAAACGCGUGAUCCGGUGAAUGGAGUUUACCAUG", "polymerase ribozyme fitness (log ratio)": "≤ -4.2"}, {"variant": "GGAUCUUCUCGAUCAAACAAAGAAGACAAAUCUGCCACAAAGCUUGAGAGCAUCUUCGGAUGCAGAGCCGGCAGCCUUCGGUGGCGCGCUAGCGCCAAAGUUCUCAACUAUGACAAGCAAAACGCGUGCUCCGUUGAAUGGAGGUUAUCAUG", "polymerase ribozyme fitness (log ratio)": "≤ -4.2"}, {"variant": "GGAUCUUCUCGAUCAAACAAAAAAGACUAAUCUGCCACAAAGCUUGAGAGCAUCUUCGUAUGCAGAGGCGGCAGCCUUCGGUGGCGCGAUAGCGCCAACGAUCUCAACUAUGACACGCAAAACGCGUGCUCCGUUGAAUGGAGUUUAUCAUG", "polymerase ribozyme fitness (log ratio)": "≤ -4.2"}, {"variant": "GGAUCUUCUCGAUCAAACAAAAAGGACAAAUCUGCCACAAAGCUUGAGAGCAUCUUCGGAUGCAGAGGCGGCGGCCUUCGGUGGCGCAAUAGCGUCAACGUUUUCAACUAUGACACGCAAAACGCGUGCUCCGUUGAAUGGAGUUUAUCAUG", "polymerase ribozyme fitness (log ratio)": "≤ -4.2"}, {"variant": "GGAUCUUCUCGAUUUAACAAAAAAGACAAAUCUGCCACAAAGCUUGAGAGCAUCAUCGGAUGCAGAGGCGGCAGCCUUCGGUGGCGCGAUAGCGCCAACGUUCUCAACUAUGACACGCAAAACGCAUGCUCUGUUGAAUGGAGUUUAUCAUG", "polymerase ribozyme fitness (log ratio)": -1.73}, {"variant": "GGAUCUUCUCGAUUUAACAAAAAAGACAAAUCUGCCACAAAGCUUGAGAGCAUCUACGGAUGCAGAGGCGGCAACCUUCGGUGGAGAGAUAGCGCCAACGUUCUCAACUAUGACACGCAAAACGUGUGCUCCGUUGAAUGGACUUUAUCUUU", "polymerase ribozyme fitness (log ratio)": "≤ -4.2"}, {"variant": "GGAUCUUCUCGAUCAAACAUAAAAGACAAAUCUGCCACAAAGCUUGAGAGCAUCUUCGGAUGCAGAGGCGGCAGCCUUCGGUGGCGCGAUAGCGCCAACGUUCUCAACUAUGACACGCAAAACGCGUGCUCCGUUGAAUGGAGUUUAUCAUG", "polymerase ribozyme fitness (log ratio)": -0.122}, {"variant": "GGAUCUUCUCGAUCAAACACAAAAGACAAAUCUGCCACAAAGCUUGAGAGCAUCUUCGAUUGCAGAGGCGGCAGCCUUCGGUGGCGCGAUAGGGCCAACGUUCUUAACUAUGACACGCAAAACGCGUGCUCCUUUGAAUGGAGUUUAUCAUG", "polymerase ribozyme fitness (log ratio)": "≤ -4.2"}, {"variant": "GGAUCUUCUCGAUCAAACAAAAAAGACACAUCUGCCACAAAGCUUGAGCGCUUCUUCGGAUGCAGAGGCGGCAGCCUUCGGUGGCGCGAUAGCGCCAACGUUCUCAACUAUGACACGCAAAACGCGUGCUCCGUUGAAUGGAGUUUAUCAUG", "polymerase ribozyme fitness (log ratio)": "≤ -4.2"}, {"variant": "GGAUCUUCUCGAUUUAACAAAAAAGACAAAUCUGCCACAAAGCUAGAGCGCAUCUUCGGAUGCAGAGGCGGCAGCCUUCGGUGGCGCGAUAGCGCUAACGUUCUCAACUAUGACACGCAAAACGCGUGCUGCGUUGAAUGUAGUUUAUCAUG", "polymerase ribozyme fitness (log ratio)": "≤ -4.2"}, {"variant": "GGAUCUUCUCGAUUUAACAAAAAAGACAAAUCUGCCACAAAGCUUGAGAGCAGCUUCGGAUGCAGAGGCGGCAGCCUUCGGUGGCGCGAUAGCGCCAACGUUCUCAACUAUGACACGCAAAACGCGUGCUCCGUUGAAUGGAGUUUAUCAUG", "polymerase ribozyme fitness (log ratio)": -3.01}]}]}
